The source of these data is US10485854B2, “Method of reducing biofilms” (Lysando AG, priority 2010, dated 2019).

In experiment [1] the test system is biofilm of the Pseudomonas aeruginosa strains 2572 and 2573. Put plainly: Biofilm reduction, crystal violet assay. The conditions noted are these: 1.25 μg PK-Peptide, 12 h.
The subject of experiment [2] is biofilm of the Staphylococcus aureus strain KS13. Briefly: Biofilm reduction, crystal violet assay. Conditions: 1.25 μg PK-Peptide, 12 h.
Experiment [3] has as its system biofilm of the Acinetobacter baumannii strain DSMZ30007. Put plainly: Biofilm reduction, crystal violet assay. Conditions: 1.25 μg PK-Peptide, 12 h.
The subject of experiment [4] is P. aeruginosa PAO1p cells. Put plainly: Antibacterial activity, 1 hour incubation with 100 μg/ml protein, residual colony count. The conditions noted are these: for Reduction [%]: undialyzed protein 100 μg/ml.
For experiment [5], the system named is Burkholderia solanacearum. The format is cell-based. Conditions: undialyzed protein 100 μg/ml; 1 hour, room temperature (Table 18).
For experiment [6], the system named is Acinetobacter baumannii (DSMZ 30007). Put plainly: Antibacterial activity, 1 hour incubation with 100 μg/ml protein, residual colony count. The format is cell-based. Conditions: undialyzed protein 100 μg/ml, room temperature (Table 18).
Experiment [7] relates to chloroform-permeabilized P. aeruginosa PAO1p cells. Briefly: Muralytic activity of P. pastoris expression supernatant (drop in optical density). The format is biochemical, Pseudomonas aeruginosa.
The test system of experiment [8] is biofilm of the Listeria monocytogenes strain ScottA. Put plainly: Biofilm reduction, crystal violet assay. The conditions noted are these: 25 μg/well, 12 h.

As to “PK-peptide: the peptide PK alone; PK denotes the polycationic 9-mer Lys-Arg-Lys-Lys-Arg-Lys-Lys-Arg-Lys (SEQ ID NO: 11) (KRKKRKKRK) [reference compound]”, the “effect on biofilm (crystal violet, absorption 590 nm)” value in experiment [1], in experiment [2] and in experiment [3] was “seems to enhance the formation” throughout.

In the case of “phiKZgp144: unmodified modular endolysin of Pseudomonas aeruginosa phage φKZ, SEQ ID NO: 1 [reference compound]”, the “Reduction [%]” value in experiment [4] (room temperature (Table 7)), in experiment [4] (room temperature (Table 18)), in experiment [5] and in experiment [6] was 0% throughout.

B1: POLY-gp144: fusion protein SEQ ID NO: 35: endolysin phiKZgp144 (SEQ ID NO: 1) with N-terminal peptide KRKKRKKRK (SEQ ID NO: 11) (protein)
chain: MGSKRKKRKKRKKVLRKGDRGDEVCQLQTLLNLCGYDVGKPDGIFGNNTFNQVVKFQKDNCLDSDGIVGKNTWAELFSKYSPPIPYKTIPMPTANKSRAAATPVMNAVENATGVRSQLLLTFASIESAFDYEIKAKTSSATGWFQFLTGTWKTMIENYGMKYGVLTDPTGALRKDPRISALMGAELIKENMNILRPVLKREPTDTDLYLAHFFGPGAARRFLTTGQNELAATHFPKEAQANPSIFYNKDGSPKTIQEVYNLMDGKVAAHRK
modifications: POLY-gp144
For B1, the “inactivation level in log units” value in experiment [4] (protein dialyzed to 50 mM KH2P04/K2HP04 pH 7 instead of undialyzed) came out at 3.9±0.2 log units. Moreover, the “enzymatic (muralytic) activity in supernatant” value in experiment [7] (30 μl supernatant after 1 day of expression, pH 6.2) is given as “limited enzymatic activity”; in experiment [7] (30 μl supernatant after 3 days of expression, no significant increase at the fourth day), “maximum activity”.

B2: Pentapeptide-Ply511: fusion protein SEQ ID NO: 141: endolysin Ply511 (SEQ ID NO: 85) with hydrophobic peptide Phe-Phe-Val-Ala-Pro (SEQ ID NO: 135) (protein)
chain: MFFVAPGSVKYTVENKIIAGLPKGKLKGANFVIAHETANSKSTIDNEVSYMTRNWKNAFVTHFVGGGGRVVQVANVNYVSWGAGQYANSYSYAQVELCRTSNATTFKKDYEVYCQLLVDLAKKAGIPITLDSGSKTSDKGIKSHKWVADKLGGTTHQDPYAYLSSWGISKAQFASDLAKVSGGGNTGTAPAKPSTPAPKPSTPSTNLDKLGLVDYMNAKKMDSSYSNRDKLAKQYGIANYSGTASQNTTLLSKIKGGAPKPSTPAPKPSTSTAKKIYFPPNKGNWSVYPTNKAPVKANAIGAINPTKFGGLTYTIQKDRGNGVYEIQTDQFGRVQVYGAPSTGAVIKK
modifications: Pentapeptid-Ply 511
On to B2, for which the “reduction of biofilm (crystal violet, absorption 590 nm)” value in experiment [8] is “massive reduction”.
